The values below come from PMC4336329 (PLoS ONE, 2015).

Out of some 310,000 compounds screened, about 2,200 (0.71%) showed an effect of 50% or more. The effect is printed as a negative number. This is one part of the list.

The target in the experiment is human ether-à-go-go-related gene (hERG) potassium channel (human, UniProt Q12809). The experiment in a line: primary screen, population patch clamp on CHO cells stably expressing hERG.
Sequence of human ether-à-go-go-related gene (hERG) potassium channel (Q12809 whole entry, looked up): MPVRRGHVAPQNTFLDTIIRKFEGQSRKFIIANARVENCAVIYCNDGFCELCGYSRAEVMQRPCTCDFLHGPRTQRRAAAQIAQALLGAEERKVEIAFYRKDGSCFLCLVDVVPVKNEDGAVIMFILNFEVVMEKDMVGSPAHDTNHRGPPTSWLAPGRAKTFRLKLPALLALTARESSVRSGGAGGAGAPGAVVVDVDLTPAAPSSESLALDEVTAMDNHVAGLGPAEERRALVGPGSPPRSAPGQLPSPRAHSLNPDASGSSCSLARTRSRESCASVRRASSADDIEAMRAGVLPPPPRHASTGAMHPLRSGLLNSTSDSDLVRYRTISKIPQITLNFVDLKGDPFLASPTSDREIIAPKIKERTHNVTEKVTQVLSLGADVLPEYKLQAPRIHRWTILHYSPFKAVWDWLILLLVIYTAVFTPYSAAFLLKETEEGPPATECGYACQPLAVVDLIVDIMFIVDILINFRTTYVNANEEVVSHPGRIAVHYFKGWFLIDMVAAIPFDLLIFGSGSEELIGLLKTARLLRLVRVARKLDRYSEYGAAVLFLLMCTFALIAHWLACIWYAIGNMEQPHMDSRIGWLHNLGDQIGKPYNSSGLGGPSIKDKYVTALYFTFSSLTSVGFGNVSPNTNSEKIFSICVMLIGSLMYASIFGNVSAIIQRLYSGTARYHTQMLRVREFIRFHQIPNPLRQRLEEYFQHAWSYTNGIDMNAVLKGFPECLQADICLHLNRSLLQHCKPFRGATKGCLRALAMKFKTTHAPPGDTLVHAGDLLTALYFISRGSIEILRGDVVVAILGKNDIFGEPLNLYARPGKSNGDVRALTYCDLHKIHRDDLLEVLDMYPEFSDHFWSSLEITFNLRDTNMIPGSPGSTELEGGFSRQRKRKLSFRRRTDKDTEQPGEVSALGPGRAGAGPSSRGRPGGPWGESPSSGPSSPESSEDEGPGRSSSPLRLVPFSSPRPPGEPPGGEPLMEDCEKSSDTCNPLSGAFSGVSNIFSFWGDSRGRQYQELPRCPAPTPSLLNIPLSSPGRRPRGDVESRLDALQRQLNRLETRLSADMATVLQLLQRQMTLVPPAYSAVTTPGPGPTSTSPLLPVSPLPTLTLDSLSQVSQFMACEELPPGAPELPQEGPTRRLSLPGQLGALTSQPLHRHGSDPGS
`Cc1cc(N2CCCc3ccccc32)n2ncnc2n1`: the “hERG current change (%, negative = inhibition) at 1uM” value is recorded as 11.9%.
Turning to `COc1ccccc1CNC(=O)COC(=O)Cn1cnc2ccccc21`, the “hERG current change (%, negative = inhibition) at 1uM” value worked out at 12.5%.
For `CCOC(=O)C1CCCN(C(=O)C2CCN(S(=O)(=O)c3ccc4ccccc4c3)CC2)C1` (stereo not drawn), the “hERG current change (%, negative = inhibition) at 1uM” value stood at 15.6%.
For the compound `CCOC(=O)C1CCCN(CC(=O)c2c[nH]c3ccc(C)cc23)C1` (stereo not drawn), the “hERG current change (%, negative = inhibition) at 1uM” value is reported as 2.76%.
For the compound `CC(=O)Nc1cccc(NC(=O)C2CCCN2C(=O)Nc2ccccc2C)c1` (stereo not drawn), the “hERG current change (%, negative = inhibition) at 1uM” value was determined as 5.13%.
In the case of `COc1ccccc1N1CCN(C2CCCN(Cc3ccccc3OCCO)C2)CC1` (stereo not drawn), the “hERG current change (%, negative = inhibition) at 1uM” value worked out at 8.21%.
In the case of `Cn1cc(SCC(=O)NCc2ccc3c(c2)OCO3)c2ccccc21` it was 5.12%.
As to `CCOC(=O)c1c(NC(=O)CSc2ncccn2)sc(C(=O)NC)c1C`, the “hERG current change (%, negative = inhibition) at 1uM” value is on record as -2.96%.
In the case of `O=C(CCN1C(=O)[C@H]2CC=CC[C@H]2C1=O)NCc1nc(-c2ccccc2)no1`, the “hERG current change (%, negative = inhibition) at 1uM” value amounted to 9.55%.
The figure for `CC(=O)c1cccc(OCCN2C(=O)NC(C)(C)C2=O)c1` is 5.11%; for `COC(=O)c1ccc(N2CCN(S(=O)(=O)c3ccc4ccccc4c3)CC2)c([N+](=O)[O-])c1` it is 18.7%; for `N/C(Cc1cccs1)=N\OC(=O)COc1ccc(Br)cc1Cl` it is 8.6%.
In the case of `CN(C(=S)NC(=O)/C=C/c1ccc(F)cc1)C1CCCCC1`, the “hERG current change (%, negative = inhibition) at 1uM” value is listed as 12.5%.
`CCCC1CCC(c2ccc(C(N)=O)cc2)CC1` (stereo not drawn): the “hERG current change (%, negative = inhibition) at 1uM” value is reported as 5.21%.
In the case of `O=C(Nc1cccnc1Cl)c1cc(-c2ccco2)on1`, the “hERG current change (%, negative = inhibition) at 1uM” value came to 17.4%.
On to `CC1=NNC(=O)c2ccccc2O1`, for which the “hERG current change (%, negative = inhibition) at 1uM” value was determined as 22.7%.
The figure for `Cc1nc2ccc(C(=O)N/N=C/c3cc([N+](=O)[O-])ccc3O)cc2[nH]1` is 10.1%; for `O=C(CSc1nc2ccccc2c(=O)[nH]1)N1CCCCC1` it is 10.4%.
Regarding `CC(C)C(NS(=O)(=O)c1ccccc1F)C(=O)N1CCc2ccccc2C1` (stereo not drawn), the “hERG current change (%, negative = inhibition) at 1uM” value turned out to be 18.9%.
Consider `O=C(NCC(c1cccs1)N1CCOCC1)c1cc(Cl)ccc1[N+](=O)[O-]` (stereo not drawn), for which the “hERG current change (%, negative = inhibition) at 1uM” value is 0.8%.
In the case of `O=C(NCc1nc2ccccc2[nH]1)C1=C[C@@H](c2ccc(C(F)(F)F)cc2)C[C@@H](OCc2ccc(CO)cc2)O1`, the “hERG current change (%, negative = inhibition) at 1uM” value was determined as 16.6%.
In the case of `O=C(NNC(=O)c1cccc(-n2cccc2)c1)c1ccc(F)cc1` it was 14.8%.
With `COc1ccc(Cl)cc1C(=O)Nn1c(-c2cccs2)nc2ccccc2c1=O`, the “hERG current change (%, negative = inhibition) at 1uM” value was -1.42%.
For the compound `Cc1nn(-c2ccccc2)c2c1P(=O)(O)/C(=C1\N(C)c3ccccc3C1(C)C)C=N2`, the “hERG current change (%, negative = inhibition) at 1uM” value came out at 7.34%.
For the compound `N#CC1=C(N)SC(N)=C(C#N)C1Cc1ccccc1`, the “hERG current change (%, negative = inhibition) at 1uM” value is recorded as 9.79%.
Consider `COc1ccccc1N(CC(=O)NCCSc1ccc(Cl)cc1)S(C)(=O)=O`, for which the “hERG current change (%, negative = inhibition) at 1uM” value is 4.09%.
Turning to `Cc1cc(C)c2c3c(sc2n1)C1(CCSCC1)C(C#N)=C(N)O3`, the “hERG current change (%, negative = inhibition) at 1uM” value worked out at 11.2%.
In the case of `O=C1CCCN1c1cc(Cl)ccc1Cl`, the “hERG current change (%, negative = inhibition) at 1uM” value is 9.09%.
The figure for `CCC(C)NC(=O)C1CCN(c2nc(C)cc(C)n2)CC1` (stereo not drawn) is 6.17%; for `O=S(=O)(Nc1cccc(-c2ccc3nncn3n2)c1)c1cccs1` it is 6.8%.
As for `Cc1cc(OCC(=O)NCCCN2CCOCC2)c2c(C)cc(=O)oc2c1`, the “hERG current change (%, negative = inhibition) at 1uM” value is 6.42%.
`CC(O)C(NS(=O)(=O)c1ccc(Cl)cc1)C(=O)OCC(=O)c1c[nH]c2ccccc12` (stereo not drawn): the “hERG current change (%, negative = inhibition) at 1uM” value is 5.23%.
With `CCOc1cc2[nH]c(=O)n(CCCCCC(=O)NC3CCCC3)c(=O)c2cc1OCC`, the “hERG current change (%, negative = inhibition) at 1uM” value was determined as 7.43%.
In the case of `CCOc1ccc2[nH]c(=O)c(CN(CCO)C(=O)c3ccc(F)cc3)cc2c1` it was 9.74%.
As for `COCCOC(=O)C1=C(C)Nc2ncnn2C1c1ccccc1` (stereo not drawn), the “hERG current change (%, negative = inhibition) at 1uM” value is reported as 11.3%.
Take `COc1ccc(NC(=O)c2cccc(N3C(=O)C4C5C=CC(C5)C4C3=O)c2)cc1` (stereo not drawn): the “hERG current change (%, negative = inhibition) at 1uM” value is on record as 15.2%.
For `COc1ccc(OC)c(CN2CCN(C(=O)c3cccs3)CC2)c1.O=C(O)C(=O)O`, the “hERG current change (%, negative = inhibition) at 1uM” value was 1.38%.
In the case of `CCOc1ccc(N2CC(C(=O)Nc3ccc(OC)c(S(=O)(=O)N4CCCCC4)c3)CC2=O)cc1` (stereo not drawn), the “hERG current change (%, negative = inhibition) at 1uM” value is 8.7%.
Turning to `CCCCN(CC)S(=O)(=O)c1ccc2c(c1)CCCN2C(C)=O`, the “hERG current change (%, negative = inhibition) at 1uM” value is -6.1%.
On to `COCc1cc(C)nc2sc(C(=O)Nc3ccc(C(=O)OC)cc3)c(N)c12`, for which the “hERG current change (%, negative = inhibition) at 1uM” value turned out to be 12.6%.
In the case of `CN(C(=O)c1ccncc1)c1nnc(-c2cnccn2)s1` it was 13.8%; in that of `Cc1ccc(NC(=S)N2CC(C)OC(C)C2)cc1C` (stereo not drawn), 9.55%.
Regarding `CC(C)c1ccc(NC(=O)CCNC(=O)N2C[C@H]3C[C@@H](C2)c2cccc(=O)n2C3)cc1`, the “hERG current change (%, negative = inhibition) at 1uM” value was 9.18%.
In the case of `O=C(NC1CCCCC1)C1CCN(S(=O)(=O)c2cccs2)CC1`, the “hERG current change (%, negative = inhibition) at 1uM” value amounted to 9.65%.
`Cn1ccs/c1=N\C(=O)Nc1cccc(C(F)(F)F)c1`: the “hERG current change (%, negative = inhibition) at 1uM” value was found to be 9.61%.
As to `O=[N+]([O-])c1ccc2nc(-c3cccnc3)[nH]c2c1`, the “hERG current change (%, negative = inhibition) at 1uM” value is 5.81%.
In the case of `CC(=O)NC(=O)Nc1sc(=S)n(C)c1C` it was 14.4%; in that of `CC(=O)OCC1=C(C(=O)O)N2C(=O)C(NC(=O)c3ccc(F)cc3)C2SC1` (stereo not drawn), 8.38%.
The figure for `COc1ccc2cc(C(c3nnnn3C3CCCC3)N3CCc4ccccc4C3)c(=O)[nH]c2c1` (stereo not drawn) is -12.1%.
Consider `O=C(Nc1cc(C(F)(F)F)ccc1-n1cnc2ccccc21)c1ccccc1`, for which the “hERG current change (%, negative = inhibition) at 1uM” value is given as -4.23%.
In the case of `COc1ccccc1-c1nnc(NC(C)=O)s1`, the “hERG current change (%, negative = inhibition) at 1uM” value was 4.27%.
In the case of `Cc1cccc(NC(=O)C(=O)NCc2ccc3c(c2)OCO3)c1C` it was -2.14%; in that of `Cc1cc(Nc2ccc(Br)c(C)c2)n2nc(C)nc2n1`, -2.83%; in that of `NNc1nccc(Nc2ccccc2C(=O)O)n1`, 6.44%.
Consider `CCOc1nc(-c2ccccc2)ccc1-c1noc(-c2ccncc2)n1`, for which the “hERG current change (%, negative = inhibition) at 1uM” value is on record as 13%.
On to `Cc1cc(C(=O)OCC(=O)Nc2ccccc2[N+](=O)[O-])c2ccccc2n1`, for which the “hERG current change (%, negative = inhibition) at 1uM” value was found to be 10.2%.
Take `CC1(C)CN=C(N(C(=O)Nc2ccccc2)c2ccccc2F)S1`: the “hERG current change (%, negative = inhibition) at 1uM” value is listed as 11.9%.
